Measurements published in publication PMC13034042.
Results are given in words; binding and its absence hold for the method and conditions named. Some binding calls cover weakened binding; strength is not graded here. For part of these data: Tags and fused reporters may be left off the sequences shown.

Tests used:
Assay in all cases: two-hybrid; Y2H in reporter strain PJ69-4A; G4BD bait and G4AD prey from monocopy plasmids (ADH1 promoter); growth on SC-HLT (HIS3) and SC-ALT (ADE2) plates, 3 days at 30°C
[1] = molecular target: T1, Rpl6a, Y2H bait (S. cerevisiae) (UniProt Q02326)
T1 sequence: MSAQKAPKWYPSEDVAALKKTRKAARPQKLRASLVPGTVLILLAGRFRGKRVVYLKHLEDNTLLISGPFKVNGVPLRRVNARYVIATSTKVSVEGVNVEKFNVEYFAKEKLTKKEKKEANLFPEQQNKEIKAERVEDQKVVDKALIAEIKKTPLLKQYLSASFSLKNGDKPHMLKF

[2] = molecular target: Gsp1.Q71L, Y2H bait (S. cerevisiae) (UniProt P32835)
[3] = molecular target: T2, Rpl5, Y2H bait whose G4BD is not N-terminal (S. cerevisiae) (UniProt P26321)
T2 sequence: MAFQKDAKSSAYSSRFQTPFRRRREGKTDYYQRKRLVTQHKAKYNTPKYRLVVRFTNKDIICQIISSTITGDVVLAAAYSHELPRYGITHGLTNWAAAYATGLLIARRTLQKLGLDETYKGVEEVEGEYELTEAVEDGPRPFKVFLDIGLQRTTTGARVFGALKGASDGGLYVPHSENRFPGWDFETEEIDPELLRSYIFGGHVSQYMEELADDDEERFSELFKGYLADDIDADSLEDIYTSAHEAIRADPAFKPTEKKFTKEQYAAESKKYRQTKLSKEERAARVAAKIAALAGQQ

[4] = molecular target: T3, Bcl1.323C, Y2H fusion (S. cerevisiae) (UniProt P53962)
T3 sequence: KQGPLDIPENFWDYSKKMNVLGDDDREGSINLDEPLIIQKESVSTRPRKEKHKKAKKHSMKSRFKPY

[5] = molecular target: T4, Bcl1.364C, Y2H fusion (S. cerevisiae) (UniProt P53962)
T4 sequence: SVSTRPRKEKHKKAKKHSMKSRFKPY

[6] = molecular target: T5, Rpl38, Y2H bait (S. cerevisiae) (UniProt P49167)
T5 sequence: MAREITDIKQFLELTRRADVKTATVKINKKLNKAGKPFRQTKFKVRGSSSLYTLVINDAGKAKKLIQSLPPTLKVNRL

[7] = molecular target: T6, Bcl1, full length, Y2H fusion (S. cerevisiae) (UniProt P53962)
T6 sequence: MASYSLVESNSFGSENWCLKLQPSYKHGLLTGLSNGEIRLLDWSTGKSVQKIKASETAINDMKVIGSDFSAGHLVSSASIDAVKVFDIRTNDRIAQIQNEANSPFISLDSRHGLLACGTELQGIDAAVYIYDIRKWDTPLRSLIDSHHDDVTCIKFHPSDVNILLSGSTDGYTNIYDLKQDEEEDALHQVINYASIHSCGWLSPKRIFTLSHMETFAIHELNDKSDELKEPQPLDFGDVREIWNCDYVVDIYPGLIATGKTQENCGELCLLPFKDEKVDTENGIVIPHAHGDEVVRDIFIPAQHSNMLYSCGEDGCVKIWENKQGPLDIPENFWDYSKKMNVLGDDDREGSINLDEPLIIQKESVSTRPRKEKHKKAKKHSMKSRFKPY

[8] = molecular target: T7, Bcl1.323C R385A, Y2H fusion (S. cerevisiae) (UniProt P53962)
T7 sequence: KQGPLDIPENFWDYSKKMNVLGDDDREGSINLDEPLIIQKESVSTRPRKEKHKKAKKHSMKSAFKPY

[9] = molecular target: T8, G4BD-Rpl10, Y2H bait (S. cerevisiae) (UniProt P41805)
T8 sequence: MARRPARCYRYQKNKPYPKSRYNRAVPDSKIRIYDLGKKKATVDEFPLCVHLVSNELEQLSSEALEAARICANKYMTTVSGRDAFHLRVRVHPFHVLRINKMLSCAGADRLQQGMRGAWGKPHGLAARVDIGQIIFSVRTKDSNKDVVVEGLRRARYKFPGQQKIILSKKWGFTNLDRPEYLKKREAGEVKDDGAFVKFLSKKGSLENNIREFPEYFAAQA

[10] = molecular target: T9, Rpl10, Y2H bait whose G4BD is not N-terminal (S. cerevisiae) (UniProt P41805)
T9 sequence: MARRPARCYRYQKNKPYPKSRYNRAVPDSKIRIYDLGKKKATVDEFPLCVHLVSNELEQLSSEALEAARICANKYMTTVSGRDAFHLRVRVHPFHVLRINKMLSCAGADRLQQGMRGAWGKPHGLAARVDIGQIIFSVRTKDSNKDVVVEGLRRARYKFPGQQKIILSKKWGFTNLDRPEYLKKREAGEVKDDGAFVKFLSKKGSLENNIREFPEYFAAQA

For “Kap114.75C, Y2H prey (from UniProt P53067 75-1004) (domain or fragment)”, the binding [1] was “binds”.

For “Kap114.159C, Y2H prey (from UniProt P53067 159-1004) (domain or fragment)”, the binding [1] was “binds”.

With “Kap114, full length, Y2H prey (from UniProt P53067 1-1004)” the binding [2] was “binds weakly”.

B1: Syo1, Y2H prey (protein, UniProt Q07395 1-620)
chain: MGRSKKRSRASSSRLNPLRKAGSNDNNKDTNVVNKKLQPLLQNLSSVVPNDRSIALSSISVLCEDAHMRQLLLKEKLVPIILNKLLNDSNSDIVVESFGLLRNLSLEEGYDVSIYLWRSDIWTSITSNFGRIVESLSALQAAEQQPQLKPAGKSKIESKRLLFDFADNLLSLVVALSNGSDDILNEILTESKINEIFQVISQLLKYGVEKLPINLFNTTLDLIYDLSSESFEFIDHVSNNELLSQFLNGLSPALHPQANELTKVLIEGIHCQFLDMKITYDQCNKMIHSVCHSINNIDPVQLVNDINNPVEIGPATSKDESSKVITKIKDYNAKRNESMIKLQSIEIAIDLITAIIEIVASKYESPESQEVAIPEELINTLTNFLPHVFMILKDTFTSRILIGWNNLIWLFVSLSLTELSGELLTTLWSYVTQLDSQDDLSIKIGRMGCIWALLKLIFPDGAFESENRALINVQMLNNSGFARGIIEEFQNNNDLELQQKCINVLSTYAMIQGQIDANKEIGQFFIQTLTQLNVRPEILIEMTNSLFQIYGDASYDYNEPIFVRGGFLSILKDQVVPNLRQQFKMVDKNKNPELKERCHDCFTTLDSFIHYKMNENSTNQ
B1 was tested, and the binding [3] was “binds”.

B2: Kap121.302C, Y2H prey (domain or fragment, UniProt P32337 302-1089)
chain: SNQNYGQTLVMVTLIMMTEVSIDDDDAAEWIESDDTDDEEEVTYDHARQALDRVALKLGGEYLAAPLFQYLQQMITSTEWRERFAAMMALSSAAEGCADVLIGEIPKILDMVIPLINDPHPRVQYGCCNVLGQISTDFSPFIQRTAHDRILPALISKLTSECTSRVQTHAAAALVNFSEFASKDILEPYLDSLLTNLLVLLQSNKLYVQEQALTTIAFIAEAAKNKFIKYYDTLMPLLLNVLKVNNKDNSVLKGKCMECATLIGFAVGKEKFHEHSQELISILVALQNSDIDEDDALRSYLEQSWSRICRILGDDFVPLLPIVIPPLLITAKATQDVGLIEEEEAANFQQYPDWDVVQVQGKHIAIHTSVLDDKVSAMELLQSYATLLRGQFAVYVKEVMEEIALPSLDFYLHDGVRAAGATLIPILLSCLLAATGTQNEELVLLWHKASSKLIGGLMSEPMPEITQVYHNSLVNGIKVMGDNCLSEDQLAAFTKGVSANLTDTYERMQDRHGDGDEYNENIDEEEDFTDEDLLDEINKSIAAVLKTTNGHYLKNLENIWPMINTFLLDNEPILVIFALVVIGDLIQYGGEQTASMKNAFIPKVTECLISPDARIRQAASYIIGVCAQYAPSTYADVCIPTLDTLVQIVDFPGSKLEENRSSTENASAAIAKILYAYNSNIPNVDTYTANWFKTLPTITDKEAASFNYQFLSQLIENNSPIVCAQSNISAVVDSVIQALNERSLTEREGQTVISSVKKLLGFLPSSDAMAIFNRYPADIMEKVHKWFA
In the case of B2, the binding [4] is reported as “binds”, the binding [5] is reported as “no binding” and the binding [6] is reported as “binds”.

B3: Kap104, full length, Y2H prey (protein, UniProt P38217 1-918)
chain: MASTWKPAEDYVLQLATLLQNCMSPNPEIRNNAMEAMENFQLQPEFLNYLCYILIEGESDDVLKQHYSLQDLQNNRATAGMLLKNSMLGGNNLIKSNSHDLGYVKSNIIHGLYNSNNNLVSNVTGIVITTLFSTYYRQHRDDPTGLQMLYQLLELTSNGNEPSIKALSKIMEDSAQFFQLEWSGNTKPMEALLDSFFRFISNPNFSPVIRSESVKCINTVIPLQTQSFIVRLDKFLEIIFQLAQNDENDLVRAQICISFSFLLEFRPDKLVSHLDGIVQFMLHLITTVNEEKVAIEACEFLHAFATSPNIPEHILQPYVKDIVPILLSKMVYNEESIVLLEASNDDDAFLEDKDEDIKPIAPRIVKKKEAGNGEDADDNEDDDDDDDDEDGDVDTQWNLRKCSAATLDVMTNILPHQVMDIAFPFLREHLGSDRWFIREATILALGAMAEGGMKYFNDGLPALIPFLVEQLNDKWAPVRKMTCWTLSRFSPWILQDHTEFLIPVLEPIINTLMDKKKDVQEAAISSVAVFIENADSELVETLFYSQLLTSFDKCLKYYKKKNLIILYDAIGRFAEKCALDETAMQIILPPLIEKWALLSDSDKELWPLLECLSCVASSLGERFMPMAPEVYNRAFRILCHCVELEAKSHQDPTIVVPEKDFIITSLDLIDGLVQGLGAHSQDLLFPQGTKDLTILKIMLECLQDPVHEVRQSCFALLGDIVYFFNSELVIGNLEDFLKLIGTEIMHNDDSDGTPAVINAIWALGLISERIDLNTYIIDMSRIILDLFTTNTQIVDSSVMENLSVTIGKMGLTHPEVFSSGAFANDSNWNKWCLSVNALDDVEEKSSAYMGFLKIINLTSTEVTMSNDTIHKIVTGLSSNVEANVFAQEIYTFLMNHSAQISAINFTPDEISFLQQFTS
B3 was tested, and the binding [7] was “binds weakly”, the binding [8] was “no binding” and the binding [4] was “binds”.

B4: Sqt1, Y2H prey (protein, UniProt P35184 1-431)
chain: MEPQEEFITTEEVEQEIVPTVEVEQDVPVDIEGENDDDDEMMNDDEEALEVDMSNNSLTYFDKHTDSVFAIGHHPNLPLVCTGGGDNLAHLWTSHSQPPKFAGTLTGYGESVISCSFTSEGGFLVTADMSGKVLVHMGQKGGAQWKLASQMQEVEEIVWLKTHPTIARTFAFGATDGSVWCYQINEQDGSLEQLMSGFVHQQDCSMGEFINTDKGENTLELVTCSLDSTIVAWNCFTGQQLFKITQAEIKGLEAPWISLSLAPETLTKGNSGVVACGSNNGLLAVINCNNGGAILHLSTVIELKPEQDELDASIESISWSSKFSLMAIGLVCGEILLYDTSAWRVRHKFVLEDSVTKLMFDNDDLFASCINGKVYQFNARTGQEKFVCVGHNMGVLDFILLHPVANTGTEQKRKVITAGDEGVSLVFEVPN
B4 was tested, and the binding [9] was “binds” and the binding [10] was “binds”.
